Source: the supplement of paper PMC11417369
± gives the standard deviation of the averaged measurements. The list shows a part of the results.

These sequences were tested on PfAP2-LT AP2 domain (GST-tagged) (assay: gcPBM binding intensity (ln(normalized median fluorescence intensity)); higher = stronger DNA binding).
Summary of the method: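 Each value is the highest Masliner-normalised natural-log median intensity across replicate spots of either orientation of a probe. The probes were primer-extended double-stranded 36-bp intergenic genomic sequences on an Agilent 4 × 180k array, alongside negative controls, exposed for 1 h to GST-tagged P. falciparum DNA-binding domains expressed in E. coli. Bound protein was picked up with Alexa488 anti-GST antibody and scanned at 488 nm.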

Sequence | gcPBM binding intensity (ln)
TATATTTATTATAACACACACATATTTATATTATAG [CACACA_site6628] | 9.02 ± 0.33
AGGTAATATACTAAATGTACAGAAAAACGAATTTTT [XGTACX_site2977] | 8.8 ± 0.5
ATATATCATGAACCTTGTACGTATATATATATATAT [XGTACX_site239] | 9.59 ± 0.028
ACTTCCTATATTTATGCATGCATTTTATTAAAAAAT [TGCATGCA_site747] | 9.03 ± 0.34
TATACAATATTTATAACACACATATTTATATAAACT [CACACA_site6932] | 8.79 ± 0.4
AGAACATTTTCTCAGTGTACTTATATATTTGACATA [XGTACX_site6541] | 8.72 ± 0.41
ACTAAACAATATGTATGTACATATTTTACATATAAT [XGTACX_site3318] | 8.88 ± 0.44
TACAGACAGAAACACACACACACGCATAAAAAAAAA [CACACA_site1514] | 9.91 ± 0.38
GATGGAATCTAATTTACATGCAGTGATATAATAAAT [TGCATGCA_site1031] | 8.73 ± 0.38
TAATAATAACCGTTATGTACACAATTTTGTGAACAT [XGTACX_site8053] | 8.74 ± 0.38
ATTTATTTATTTATATGTACATATATATATATATAT [XGTACX_site339] | 9.12 ± 0.12
TCAAGAATTTTAAAGAGTACATAAAACAATAATATA [XGTACX_site3923] | 8.56 ± 0.4
CAAAAATAACGAGTCAAACACACATATATATATATA [CACACA_site2038] | 9.86 ± 0.3
AAAGGGATAACACCAAAAAAAATAAAAATAAAAATA [GTGCAC_negctrl_site680] | 8.63 ± 0.73
CAACACTTTCAAAAATGTACGTACAAATGTATTTTA [XGTACX_site6713] | 8.73 ± 0.47
ACAAAATAAAGACACACACACAAACACAAAAAAATA [CACACA_site7568] | 10.1 ± 0.38
AGTTTCCATATGAGGTGTACATATATAATTTATTAT [XGTACX_site2369] | 8.93 ± 0.36
ATGCGTATACTAAGAACACACAAGTTACTTGGTGTT [CACACA_site1625] | 8.96 ± 0.35
ATTAATGATTTTTGTTGTACATTATTAATTTACATT [XGTACX_site544] | 8.88 ± 0.4

Sequence | gcPBM binding intensity (ln)
CATACATACATACATACACACATACATATGTATTTA [CACACA_site5384] | 9.31 ± 0.33
TATTTTATATTTCATTTGTTATTTTTCTTGGTTCTA [CACACA_negctrl_site33] | 8.73 ± 0.59
TACCATTATTTTAAGTGTACATACTAATTTATATAT [XGTACX_site6548] | 8.79 ± 0.43
AAAATATAATATATTGCACACAAAAAGTGAATTATT [CACACA_site8489] | 9.06 ± 0.35
TCTTTCTATTTATAATGTACTCAAAATTATTCTATA [XGTACX_site4867] | 8.51 ± 0.4
AAATTGTGTGAAATATATTAATATTATTATTATTAT [TGCATGCA_negctrl_site189] | 8.65 ± 0.52
CCTTGCATTTATTATACACACACAAAAAAATATATA [CACACA_site7964] | 9.05 ± 0.4
TTTTACCACTAAAAATGTACAAAAAAAAAAAAAAAA [XGTACX_site4226] | 8.37 ± 0.4
TTTGTAGATTTTGTAACACACACATATATATACATA [CACACA_site8757] | 9.12 ± 0.35
TATGCACCCAGACACACACACACAACTAAAAAATAA [CACACA_site2567] | 9.8 ± 0.35
TTGCAAATATATGGTTGTACTCAAAAAAAAAAAAAA [XGTACX_site6975] | 8.48 ± 0.43
CATGTCAAAATTATACGTACATATATAAGTTCCATT [XGTACX_site6331] | 8.86 ± 0.35
AAAAAAAAATAAAAAAGTACATTCATTTTATAAGAT [XGTACX_site3507] | 8.61 ± 0.49
ATCCTCTTTTTAAGTTGTACAGGGTCGAAAAAAAAA [XGTACX_site6852] | 8.37 ± 0.4
GATTATTATTATAAGGGTACAAATATTTAATAAAAA [XGTACX_site7144] | 8.59 ± 0.54
TTTTTTCAAATTATTCGATATGTAAAAAAATAAAAT [GTGCAC_negctrl_site241] | 8.12 ± 0.42
AAATATTTGTGTGGTTGTACTATAATGATAAAAATA [XGTACX_site7703] | 8.99 ± 0.47
TTTTTTTTTTTTGAGTGTACAAGATTGTTGTTCCAA [XGTACX_site6120] | 8.51 ± 0.51
CATACATACAAACACACACACATATATATATATATA [CACACA_site43] | 10.16 ± 0.042

Sequence | gcPBM binding intensity (ln)
TTATATTATATATATATTATATATATGTATGCATAA [TGCATGCA_negctrl_site481] | 8.72 ± 0.2
GGTTTGAATTTTTAAGTGCATATAACATAAATGAAA | 8.4 ± 0.43
AGATAGCTATTAAAAAGTACAAAAAAATATATATAT [XGTACX_site6289] | 8.89 ± 0.46
ATAAATACAGATATTACACACTTCTTATTCTAAGAA [CACACA_site5640] | 8.65 ± 0.45
TATTTACAACAAATTTAATTATTTTTAACTTATAAA [GTGCAC_negctrl_site259] | 8.06 ± 0.49
TATACAGGAATATTTTTACACACTAATAATTATAAA [CACACA_site8477] | 8.73 ± 0.5
TATTTTATATAAAGGTGTACTTATACAAAAATATAT [XGTACX_site7435] | 8.54 ± 0.43
AAGTAATTTGTTGACACACACACACGCATACCTATA [CACACA_site7140] | 9.81 ± 0.2
TCCCAATTTCTATCCTGTACAGACATAAATATATAC [XGTACX_site5937] | 8.8 ± 0.35
ATAAATCCATGTAACTGTACTTTTTTTTTTTTTTTT [XGTACX_site7373] | 8.71 ± 0.35
ATAAAGATTAATAAAATAAAATTCCGCAAACATATA [CACACA_negctrl_site244] | 8.71 ± 0.38
TTTTGAAATTTTTGTGTTTTTCCTTTTTATTTTATA [CACACA_negctrl_site1740] | 8.53 ± 0.47
TTTTTTTTCTAAATTATATGAAAATATATGTTATGT [GTGCAC_negctrl_site85] | 8.46 ± 0.38
TACATAAACATTTATACACACATTATAAATACATAT [CACACA_site4386] | 9.03 ± 0.38
ATTTTCTATTTTATTTGTACGTAATTTAATTTTTTT [XGTACX_site3609] | 8.96 ± 0.53
ACAATTTTAAAATGAACACACATGTTTTTCTTACTT [CACACA_site1014] | 9.02 ± 0.52
GCTCCTTTTACCATCGCACACGATAAAAAAAAATAA [CACACA_site3255] | 8.7 ± 0.43
ACAAATACTAACAACGCATGTAAGCCTACAATAAAT [TGCATGCA_site551] | 9.1 ± 0.31
